In PubChem BioAssay (NCI):
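Compound exposure: 48 hours, 5 concentrations, 96-well plates. The concentration for 50% growth inhibition is given as GI50. TGI marks complete inhibition of growth.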 Activity calls are given as the source filed them.

Legend:
Experiment in all cases: DTP human tumour cell line panel, 48 h
COLO 205 colon = tested on: COLO 205 colon
ACHN renal = tested on: ACHN renal
TK-10 renal = tested on: TK-10 renal
SR leukemia = tested on: SR leukemia
UACC-62 melanoma = tested on: UACC-62 melanoma
SK-OV-3 ovarian = tested on: SK-OV-3 ovarian
DU-145 prostate = tested on: DU-145 prostate
SK-MEL-2 melanoma = tested on: SK-MEL-2 melanoma
UACC-257 melanoma = tested on: UACC-257 melanoma
A549 NSCLC = tested on: A549 NSCLC
NCI-H23 lung = tested on: NCI-H23 lung
K-562 leukemia = tested on: K-562 leukemia
M14 melanoma = tested on: M14 melanoma
HT29 colon = tested on: HT29 colon
SF-295 CNS = tested on: SF-295 CNS
RXF 393 renal = tested on: RXF 393 renal
SNB-75 CNS = tested on: SNB-75 CNS
BT-549 breast = tested on: BT-549 breast
LOX IMVI melanoma = tested on: LOX IMVI melanoma
T-47D breast = tested on: T-47D breast
NCI-H460 lung = tested on: NCI-H460 lung
SF-539 CNS = tested on: SF-539 CNS
SK-MEL-28 melanoma = tested on: SK-MEL-28 melanoma
SF-268 CNS = tested on: SF-268 CNS
NCI/ADR-RES ovarian = tested on: NCI/ADR-RES ovarian
CAKI-1 renal = tested on: CAKI-1 renal
MDA-MB-435 = tested on: MDA-MB-435
OVCAR-8 ovarian = tested on: OVCAR-8 ovarian
KM12 colon = tested on: KM12 colon
SK-MEL-5 melanoma = tested on: SK-MEL-5 melanoma
OVCAR-5 ovarian = tested on: OVCAR-5 ovarian
UO-31 renal = tested on: UO-31 renal
HCT-116 colon = tested on: HCT-116 colon
SN12C renal = tested on: SN12C renal
MDA-MB-231 breast = tested on: MDA-MB-231 breast
U251 CNS = tested on: U251 CNS
OVCAR-4 ovarian = tested on: OVCAR-4 ovarian
MALME-3M melanoma = tested on: MALME-3M melanoma
CCRF-CEM leukemia = tested on: CCRF-CEM leukemia
PC-3 prostate = tested on: PC-3 prostate
HOP-62 NSCLC = tested on: HOP-62 NSCLC
MOLT-4 leukemia = tested on: MOLT-4 leukemia
HCT-15 colon = tested on: HCT-15 colon
NCI-H226 lung = tested on: NCI-H226 lung
SNB-19 CNS = tested on: SNB-19 CNS
786-0 renal = tested on: 786-0 renal
HL-60(TB) leukemia = tested on: HL-60(TB) leukemia
HCC-2998 colon = tested on: HCC-2998 colon
EKVX NSCLC = tested on: EKVX NSCLC
OVCAR-3 ovarian = tested on: OVCAR-3 ovarian
SW-620 colon = tested on: SW-620 colon
MCF7 breast = tested on: MCF7 breast
IGROV1 ovarian = tested on: IGROV1 ovarian

Cc1c2cc(O)c(=O)cc-2oc2cc(O)c(O)cc12
GI50 (COLO 205 colon): > 100 µM
TGI (COLO 205 colon): > 100 µM
GI50 (ACHN renal): inactive
TGI (ACHN renal): > 100 µM
GI50 (TK-10 renal): > 100 µM
TGI (TK-10 renal): > 100 µM
GI50 (SR leukemia): inactive
TGI (SR leukemia): > 100 µM
GI50 (UACC-62 melanoma): > 100 µM
TGI (UACC-62 melanoma): > 100 µM
GI50 (SK-OV-3 ovarian): > 100 µM
TGI (SK-OV-3 ovarian): > 100 µM
GI50 (DU-145 prostate): > 100 µM
TGI (DU-145 prostate): > 100 µM
GI50 (SK-MEL-2 melanoma): > 100 µM
TGI (SK-MEL-2 melanoma): > 100 µM
GI50 (UACC-257 melanoma): > 100 µM
TGI (UACC-257 melanoma): > 100 µM
GI50 (A549 NSCLC): > 100 µM
TGI (A549 NSCLC): > 100 µM
GI50 (NCI-H23 lung): > 100 µM
TGI (NCI-H23 lung): > 100 µM
GI50 (K-562 leukemia): > 100 µM
TGI (K-562 leukemia): > 100 µM
GI50 (M14 melanoma): inactive
TGI (M14 melanoma): > 100 µM
GI50 (HT29 colon): > 100 µM
TGI (HT29 colon): > 100 µM
GI50 (SF-295 CNS): > 100 µM
TGI (SF-295 CNS): > 100 µM
GI50 (RXF 393 renal): inactive
TGI (RXF 393 renal): > 100 µM
GI50 (SNB-75 CNS): inactive
TGI (SNB-75 CNS): > 100 µM
GI50 (BT-549 breast): > 100 µM
TGI (BT-549 breast): > 100 µM
GI50 (LOX IMVI melanoma): > 100 µM
TGI (LOX IMVI melanoma): > 100 µM
GI50 (T-47D breast): > 100 µM
TGI (T-47D breast): > 100 µM
GI50 (NCI-H460 lung): > 100 µM
TGI (NCI-H460 lung): > 100 µM
GI50 (SF-539 CNS): > 100 µM
TGI (SF-539 CNS): > 100 µM
GI50 (SK-MEL-28 melanoma): > 100 µM
TGI (SK-MEL-28 melanoma): > 100 µM
GI50 (SF-268 CNS): inactive
TGI (SF-268 CNS): > 100 µM
GI50 (NCI/ADR-RES ovarian): inactive
TGI (NCI/ADR-RES ovarian): > 100 µM
GI50 (CAKI-1 renal): inactive
TGI (CAKI-1 renal): > 100 µM
GI50 (MDA-MB-435): inactive
TGI (MDA-MB-435): > 100 µM
GI50 (OVCAR-8 ovarian): > 100 µM
TGI (OVCAR-8 ovarian): > 100 µM
GI50 (KM12 colon): > 100 µM
TGI (KM12 colon): > 100 µM
GI50 (SK-MEL-5 melanoma): > 100 µM
TGI (SK-MEL-5 melanoma): > 100 µM
GI50 (OVCAR-5 ovarian): > 100 µM
TGI (OVCAR-5 ovarian): > 100 µM
GI50 (UO-31 renal): inactive
TGI (UO-31 renal): 75.3 µM
GI50 (HCT-116 colon): > 100 µM
TGI (HCT-116 colon): > 100 µM
GI50 (SN12C renal): > 100 µM
TGI (SN12C renal): > 100 µM
GI50 (MDA-MB-231 breast): > 100 µM
TGI (MDA-MB-231 breast): > 100 µM
GI50 (U251 CNS): inactive
TGI (U251 CNS): > 100 µM
GI50 (OVCAR-4 ovarian): > 100 µM
TGI (OVCAR-4 ovarian): > 100 µM
GI50 (MALME-3M melanoma): > 100 µM
TGI (MALME-3M melanoma): > 100 µM
GI50 (CCRF-CEM leukemia): inactive
TGI (CCRF-CEM leukemia): > 100 µM
GI50 (PC-3 prostate): > 100 µM
TGI (PC-3 prostate): > 100 µM
GI50 (HOP-62 NSCLC): inactive
TGI (HOP-62 NSCLC): > 100 µM
GI50 (MOLT-4 leukemia): > 100 µM
TGI (MOLT-4 leukemia): > 100 µM
GI50 (HCT-15 colon): > 100 µM
TGI (HCT-15 colon): > 100 µM
GI50 (NCI-H226 lung): > 100 µM
TGI (NCI-H226 lung): > 100 µM
GI50 (SNB-19 CNS): > 100 µM
TGI (SNB-19 CNS): > 100 µM
GI50 (786-0 renal): > 100 µM
TGI (786-0 renal): > 100 µM
GI50 (HL-60(TB) leukemia): > 100 µM
TGI (HL-60(TB) leukemia): > 100 µM
GI50 (HCC-2998 colon): > 100 µM
TGI (HCC-2998 colon): > 100 µM
GI50 (EKVX NSCLC): > 100 µM
TGI (EKVX NSCLC): > 100 µM
GI50 (OVCAR-3 ovarian): inactive
TGI (OVCAR-3 ovarian): > 100 µM
GI50 (SW-620 colon): > 100 µM
TGI (SW-620 colon): > 100 µM
GI50 (MCF7 breast): > 100 µM
TGI (MCF7 breast): > 100 µM
GI50 (IGROV1 ovarian): > 100 µM
TGI (IGROV1 ovarian): > 100 µM
